# Reference: the supplement of paper PMC8728848
# This is one part of the list.
# B1: MpL2 (Macrolepiota procera) (protein)
# chain: MSTQVSSGQTYKITNVKAGTVIDLSGEDNKSIIGYPYHSGKNQQWTFNWTGKAWTLRSASSGSYLGIEGTPADGTRLVAVNDPFEWHIWRDEANENAFRIFVPFTNYNLRLSGYGDTTPGTPVQLWWTWEGLHQTWTIDRP
# How the values were obtained:
# Assay in all cases: glycan array binding signal (z-score within array); higher = stronger binding
# Settings in all cases: glycan notation: IUPAC condensed, linker removed; mutation: D109R
# [1] = target: Gal(b1-4)GlcNAc(b1-3)Gal(b1-4)GlcNAc(b1-2)Man(a1-3)[Gal(b1-4)GlcNAc(b1-3)Gal(b1-4)GlcNAc(b1-2)Man(a1-6)]Man(b1-4)GlcNAc(b1-4)[Fuc(a1-6)]GlcNAc
# Summary of the method: (§1)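 Arrays were curated from the Consortium for Functional Glycomics database, 3228 in total, and kept only where the protein sequence was available. Binding is expressed as a within-array Z-score. This score was averaged across arrays of the same protein sequence at different concentrations or buffers and across linkers, and negative values can be read as non-binding.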
# [2] = target: Gal(b1-4)GlcNAc(b1-3)Gal(b1-4)GlcNAc(b1-2)[Gal(b1-4)GlcNAc(b1-3)Gal(b1-4)GlcNAc(b1-6)]Man(a1-6)[Gal(b1-4)GlcNAc(b1-3)Gal(b1-4)GlcNAc(b1-2)Man(a1-3)]Man(b1-4)GlcNAc(b1-4)GlcNAc
# Summary of the method: as §1
# [3] = target: Gal(b1-4)GlcNAc(b1-3)Gal(b1-4)GlcNAc(b1-2)[Gal(b1-4)GlcNAc(b1-3)Gal(b1-4)GlcNAc(b1-6)]Man(a1-6)[Gal(b1-4)GlcNAc(b1-3)Gal(b1-4)GlcNAc(b1-2)Man(a1-3)]Man(b1-4)GlcNAc(b1-4)[Fuc(a1-6)]GlcNAc
# Summary of the method: as §1
# [4] = target: Gal(b1-4)GlcNAc(b1-3)Gal(b1-4)GlcNAc(b1-3)Gal(b1-4)GlcNAc
# Summary of the method: as §1
# [5] = target: Gal(b1-4)GlcNAc(b1-3)Gal(b1-4)GlcNAc(b1-3)Gal(b1-4)GlcNAc(b1-2)Man(a1-3)[Gal(b1-4)GlcNAc(b1-3)Gal(b1-4)GlcNAc(b1-3)Gal(b1-4)GlcNAc(b1-2)Man(a1-6)]Man(b1-4)GlcNAc(b1-4)GlcNAc
# Summary of the method: as §1
# [6] = target: Gal(b1-4)GlcNAc(b1-3)Gal(b1-4)GlcNAc(b1-3)Gal(b1-4)GlcNAc(b1-2)Man(a1-3)[Gal(b1-4)GlcNAc(b1-3)Gal(b1-4)GlcNAc(b1-3)Gal(b1-4)GlcNAc(b1-2)Man(a1-6)]Man(b1-4)GlcNAc(b1-4)[Fuc(a1-6)]GlcNAc
# Summary of the method: as §1
# [7] = target: Gal(b1-4)GlcNAc(b1-3)Gal(b1-4)GlcNAc(b1-3)Gal(b1-4)GlcNAc(b1-2)[Gal(b1-4)GlcNAc(b1-3)Gal(b1-4)GlcNAc(b1-3)Gal(b1-4)GlcNAc(b1-6)]Man(a1-6)[Gal(b1-4)GlcNAc(b1-3)Gal(b1-4)GlcNAc(b1-3)Gal(b1-4)GlcNAc(b1-2)Man(a1-3)]Man(b1-4)GlcNAc(b1-4)[Fuc(a1-6)]GlcNAc
# Summary of the method: as §1
# [8] = target: Gal(b1-4)GlcNAc(b1-3)Gal(b1-4)GlcNAc(b1-3)Gal(b1-4)GlcNAc(b1-3)Gal(b1-4)GlcNAc(b1-2)Man(a1-3)[Gal(b1-4)GlcNAc(b1-3)Gal(b1-4)GlcNAc(b1-3)Gal(b1-4)GlcNAc(b1-3)Gal(b1-4)GlcNAc(b1-2)Man(a1-6)]Man(b1-4)GlcNAc(b1-4)GlcNAc
# Summary of the method: as §1
# [9] = target: Gal(b1-4)GlcNAc(b1-3)Gal(b1-4)GlcNAc(b1-3)Gal(b1-4)GlcNAc(b1-3)Gal(b1-4)GlcNAc(b1-2)Man(a1-3)[Gal(b1-4)GlcNAc(b1-3)Gal(b1-4)GlcNAc(b1-3)Gal(b1-4)GlcNAc(b1-3)Gal(b1-4)GlcNAc(b1-2)Man(a1-6)]Man(b1-4)GlcNAc(b1-4)[Fuc(a1-6)]GlcNAc
# Summary of the method: as §1
# [10] = target: Gal(b1-4)GlcNAc(b1-3)Gal(b1-4)GlcNAc(b1-3)Gal(b1-4)GlcNAc(b1-3)Gal(b1-4)GlcNAc(b1-2)[Gal(b1-4)GlcNAc(b1-3)Gal(b1-4)GlcNAc(b1-3)Gal(b1-4)GlcNAc(b1-3)Gal(b1-4)GlcNAc(b1-6)]Man(a1-6)[Gal(b1-4)GlcNAc(b1-3)Gal(b1-4)GlcNAc(b1-3)Gal(b1-4)GlcNAc(b1-3)Gal(b1-4)GlcNAc(b1-2)Man(a1-3)]Man(b1-4)GlcNAc(b1-4)[Fuc(a1-6)]GlcNAc
# Summary of the method: as §1
# [11] = target: Gal(b1-4)GlcNAc(b1-3)Gal(b1-4)GlcNAc(b1-3)Gal(b1-4)GlcNAc(b1-3)Gal(b1-4)GlcNAc(b1-3)Gal(b1-4)GlcNAc(b1-2)Man(a1-3)[Gal(b1-4)GlcNAc(b1-3)Gal(b1-4)GlcNAc(b1-3)Gal(b1-4)GlcNAc(b1-3)Gal(b1-4)GlcNAc(b1-3)Gal(b1-4)GlcNAc(b1-2)Man(a1-6)]Man(b1-4)GlcNAc(b1-4)GlcNAc
# Summary of the method: as §1
# [12] = target: Gal(b1-4)GlcNAc(b1-3)Gal(b1-4)GlcNAc(b1-3)Gal(b1-4)GlcNAc(b1-3)Gal(b1-4)GlcNAc(b1-3)Gal(b1-4)GlcNAc(b1-2)Man(a1-3)[Gal(b1-4)GlcNAc(b1-3)Gal(b1-4)GlcNAc(b1-3)Gal(b1-4)GlcNAc(b1-3)Gal(b1-4)GlcNAc(b1-3)Gal(b1-4)GlcNAc(b1-2)Man(a1-6)]Man(b1-4)GlcNAc(b1-4)[Fuc(a1-6)]GlcNAc
# Summary of the method: as §1
# [13] = target: Gal(b1-4)GlcNAc(b1-3)Gal(b1-4)GlcNAc(b1-3)Gal(b1-4)GlcNAc(b1-3)Gal(b1-4)GlcNAc(b1-3)Gal(b1-4)GlcNAc(b1-2)[Gal(b1-4)GlcNAc(b1-3)Gal(b1-4)GlcNAc(b1-3)Gal(b1-4)GlcNAc(b1-3)Gal(b1-4)GlcNAc(b1-3)Gal(b1-4)GlcNAc(b1-6)]Man(a1-6)[Gal(b1-4)GlcNAc(b1-3)Gal(b1-4)GlcNAc(b1-3)Gal(b1-4)GlcNAc(b1-3)Gal(b1-4)GlcNAc(b1-3)Gal(b1-4)GlcNAc(b1-2)Man(a1-3)]Man(b1-4)GlcNAc(b1-4)[Fuc(a1-6)]GlcNAc
# Summary of the method: as §1
# [14] = target: Gal(b1-4)GlcNAc(b1-3)Gal(b1-4)GlcNAc(b1-3)Gal(b1-4)GlcNAc(b1-3)Gal(b1-4)GlcNAc(b1-3)Gal(b1-4)GlcNAc(b1-3)Gal(b1-4)GlcNAc(b1-2)Man(a1-3)[Gal(b1-4)GlcNAc(b1-3)Gal(b1-4)GlcNAc(b1-3)Gal(b1-4)GlcNAc(b1-3)Gal(b1-4)GlcNAc(b1-3)Gal(b1-4)GlcNAc(b1-3)Gal(b1-4)GlcNAc(b1-2)Man(a1-6)]Man(b1-4)GlcNAc(b1-4)GlcNAc
# Summary of the method: as §1
# [15] = target: Gal(b1-4)GlcNAc(b1-3)Gal(b1-4)GlcNAc(b1-3)GalNAc
# Summary of the method: as §1
# [16] = target: Gal(b1-4)GlcNAc(b1-3)Gal(b1-4)GlcNAc(b1-3)[Gal(b1-4)GlcNAc(b1-3)Gal(b1-4)GlcNAc(b1-6)]GalNAc
# Summary of the method: as §1
# [17] = target: Gal(b1-4)GlcNAc(b1-3)Gal(b1-4)GlcNAc(b1-6)[Gal(b1-3)]GalNAc
# Summary of the method: as §1
# [18] = target: Gal(b1-4)GlcNAc(b1-3)Gal(b1-4)[Fuc(a1-3)]GlcNAc(b1-3)Gal(b1-4)[Fuc(a1-3)]GlcNAc
# Summary of the method: as §1
# [19] = target: Gal(b1-4)GlcNAc(b1-3)GalNAc
# Summary of the method: as §1
# [20] = target: Gal(b1-4)GlcNAc(b1-3)[Fuc(a1-3)GlcNAc(b1-6)]Gal(b1-4)Glc
# Summary of the method: as §1
# [21] = target: Gal(b1-4)GlcNAc(b1-3)[Gal(b1-4)GlcNAc(b1-6)]Gal(b1-4)GlcNAc
# Summary of the method: as §1
# [22] = target: Gal(b1-4)GlcNAc(b1-3)[GlcNAc(b1-6)]Gal(b1-4)GlcNAc
# Summary of the method: as §1
# [23] = target: Gal(b1-4)GlcNAc(b1-6)Gal(b1-4)GlcNAc
# Summary of the method: as §1
# [24] = target: Gal(b1-4)GlcNAc(b1-6)GalNAc
# Summary of the method: as §1
# [25] = target: Gal(b1-4)GlcNAc(b1-6)[Gal(b1-3)]GalNAc
# Summary of the method: as §1
# [26] = target: Gal(b1-4)GlcNAc(b1-6)[Gal(b1-4)GlcNAc(b1-3)]GalNAc
# Summary of the method: as §1
# Gal(b1-4)GlcNAc6P = target: Gal(b1-4)GlcNAc6P
# Summary of the method: as §1
# Gal(b1-6)Gal = target: Gal(b1-6)Gal
# Summary of the method: as §1
# Gal3S(b1-3)GalNAc = target: Gal3S(b1-3)GalNAc
# Summary of the method: as §1
# Gal3S(b1-3)GlcNAc = target: Gal3S(b1-3)GlcNAc
# Summary of the method: as §1
# [27] = target: Gal3S(b1-3)[Fuc(a1-4)]GlcNAc
# Summary of the method: as §1
# Gal3S(b1-4)Glc = target: Gal3S(b1-4)Glc
# Summary of the method: as §1
# Gal3S(b1-4)Glc6S = target: Gal3S(b1-4)Glc6S
# Summary of the method: as §1
# Gal3S(b1-4)GlcNAc = target: Gal3S(b1-4)GlcNAc
# Summary of the method: as §1
# [28] = target: Gal3S(b1-4)[Fuc(a1-3)]Glc6S
# Summary of the method: as §1
# [29] = target: Gal3S(b1-4)[Fuc(a1-3)]GlcNAc
# Summary of the method: as §1
# [30] = target: Gal3S(b1-4)[Fuc(a1-3)]GlcNAc6S
# Summary of the method: as §1
# Gal3S4S(b1-4)GlcNAc = target: Gal3S4S(b1-4)GlcNAc
# Summary of the method: as §1
# Gal3S6S(b1-4)GlcNAc = target: Gal3S6S(b1-4)GlcNAc
# Summary of the method: as §1
# Gal3S6S(b1-4)GlcNAc6S = target: Gal3S6S(b1-4)GlcNAc6S
# Summary of the method: as §1
# Gal4S(b1-4)GlcNAc = target: Gal4S(b1-4)GlcNAc
# Summary of the method: as §1
# Gal4S6S(b1-4)GlcNAc = target: Gal4S6S(b1-4)GlcNAc
# Summary of the method: as §1
# Gal6P(b1-4)GlcNAc = target: Gal6P(b1-4)GlcNAc
# Summary of the method: as §1
# Gal6S(b1-3)GlcNAc = target: Gal6S(b1-3)GlcNAc
# Summary of the method: as §1
# Gal6S(b1-3)GlcNAc6S = target: Gal6S(b1-3)GlcNAc6S
# Summary of the method: as §1
binder,measurement,setting,value
B1,glycan array binding signal (z-score),[1],2.09
same,glycan array binding signal (z-score),[2],1.69
same,glycan array binding signal (z-score),[3],3.95
same,glycan array binding signal (z-score),[4],0.695
same,glycan array binding signal (z-score),[5],1.99
same,glycan array binding signal (z-score),[6],2.82
same,glycan array binding signal (z-score),[7],3.9
same,glycan array binding signal (z-score),[8],3.84
same,glycan array binding signal (z-score),[9],3.51
same,glycan array binding signal (z-score),[10],4.36
same,glycan array binding signal (z-score),[11],3.94
same,glycan array binding signal (z-score),[12],3.44
same,glycan array binding signal (z-score),[13],4.48
same,glycan array binding signal (z-score),[14],3.5
same,glycan array binding signal (z-score),[15],-0.005
same,glycan array binding signal (z-score),[16],0.33
same,glycan array binding signal (z-score),[17],-0.076
same,glycan array binding signal (z-score),[18],0.188
same,glycan array binding signal (z-score),[19],-0.017
same,glycan array binding signal (z-score),[20],0.124
same,glycan array binding signal (z-score),[21],2.06
same,glycan array binding signal (z-score),[22],0.43
same,glycan array binding signal (z-score),[23],0.409
same,glycan array binding signal (z-score),[24],0.017
same,glycan array binding signal (z-score),[25],0.018
same,glycan array binding signal (z-score),[26],1.42
same,glycan array binding signal (z-score),Gal(b1-4)GlcNAc6P,-0.295
same,glycan array binding signal (z-score),Gal(b1-6)Gal,-0.282
same,glycan array binding signal (z-score),Gal3S(b1-3)GalNAc,-0.269
same,glycan array binding signal (z-score),Gal3S(b1-3)GlcNAc,-0.276
same,glycan array binding signal (z-score),[27],-0.258
same,glycan array binding signal (z-score),Gal3S(b1-4)Glc,-0.262
same,glycan array binding signal (z-score),Gal3S(b1-4)Glc6S,-0.274
same,glycan array binding signal (z-score),Gal3S(b1-4)GlcNAc,-0.277
same,glycan array binding signal (z-score),[28],-0.212
same,glycan array binding signal (z-score),[29],-0.253
same,glycan array binding signal (z-score),[30],-0.256
same,glycan array binding signal (z-score),Gal3S4S(b1-4)GlcNAc,-0.282
same,glycan array binding signal (z-score),Gal3S6S(b1-4)GlcNAc,-0.247
same,glycan array binding signal (z-score),Gal3S6S(b1-4)GlcNAc6S,-0.257
same,glycan array binding signal (z-score),Gal4S(b1-4)GlcNAc,-0.287
same,glycan array binding signal (z-score),Gal4S6S(b1-4)GlcNAc,-0.262
same,glycan array binding signal (z-score),Gal6P(b1-4)GlcNAc,-0.218
same,glycan array binding signal (z-score),Gal6S(b1-3)GlcNAc,-0.275
same,glycan array binding signal (z-score),Gal6S(b1-3)GlcNAc6S,-0.293
